# Source: the supplement of paper PMC12009370
# The list shows a part of the results. Single values are uncertain, as repeats are few or missing.
# What was measured:
# IMR-32 [1] = assay: drug sensitivity score (DSS), single drug with vehicle (DSS (score)); higher = more cytotoxic; extreme values may be limits of the assay; conditions: 72 h; co-treatment: vehicle (DMSO)
# SK-N-AS [2] = assay: as above; conditions: 72 h; co-treatment: vehicle (DMSO)
# SK-N-AS [3] = assay: drug sensitivity score (DSS) in combination with SL-176 (DSS (score)); higher = more cytotoxic; extreme values may be limits of the assay; conditions: 72 h; co-treatment: SL-176 11.2 uM (IC25 in IMR-32)
# IMR-32 [4] = assay: as above; conditions: 72 h; co-treatment: SL-176 11.2 uM (IC25 in IMR-32)
# SK-N-AS [5] = assay: drug sensitivity score (DSS) in combination with GSK2830371 (DSS (score)); neuroblastoma lines; SL-176 and GSK2830371 are WIP1 inhibitors; higher = more cytotoxic; extreme values may be limits of the assay; conditions: 72 h; co-treatment: GSK2830371 at IC25 in IMR-32
# IMR-32 [6] = assay: as above; conditions: 72 h; co-treatment: GSK2830371 at IC25 in IMR-32
# 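Wherever drug sensitivity score (DSS) in combination with GSK2830371 is given: neuroblastoma cells in 384-well plates, each compound at five concentrations, luminescence read-out, DSS derived from fitted concentration-response curve combining IC50 with minimum and maximum inhibition.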
# 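Wherever drug sensitivity score (DSS) in combination with SL-176 is given: cells in 384-well plates, luminescence read-out, each screening drug at five concentrations, DSS derived from the fitted concentration-response curve combining IC50 with minimum and maximum inhibition.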
# 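Wherever drug sensitivity score (DSS), single drug with vehicle is given: 384-well screen with five concentrations per compound and a luminescence read-out, DSS computed from the fitted dose-response curve combining IC50 with minimum and maximum inhibition.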
SMILES,drug sensitivity score (IMR-32 [1]),drug sensitivity score (SK-N-AS [2]),drug sensitivity score (SK-N-AS [3]),drug sensitivity score (IMR-32 [4]),drug sensitivity score (SK-N-AS [5]),drug sensitivity score (IMR-32 [6])
CNC(=O)c1cc(COc2nnc(Nc3ccc(Cl)cc3)c3ccoc23)ccn1 [Telatinib],3.1,0,0,0,0,0.5
COc1cc(N2CCN(C)CC2)ccc1Nc1nccc(-c2cn(C)c3cnccc23)n1,8.8,5.2,4.9,6.6,6.5,8.6
CNC(=O)c1cccc(-c2ccc3c(N4CCOC[C@@H]4C)nc(N4CCOC[C@@H]4C)nc3n2)c1 [Vistusertib],14.9,16.2,14.6,14.2,16.7,17.4
N#CC[C@H](C1CCCC1)n1cc(-c2ncnc3[nH]ccc23)cn1 [Ruxolitinib],10.6,0.2,0,6.6,0,6.8
CC[C@H](CO)Nc1nc(NCc2ccccc2)c2ncn(C(C)C)c2n1 [Seliciclib],2.1,1.8,2.4,6.5,0.6,4.4
CC1(COc2ccc3c(c2)ncn3-c2ccc3cccc(N4CCC(N)CC4)c3n2)COC1 [Crenolanib],8.7,6.7,7,9.2,5.4,8.6
O=C(NOC[C@H](O)CO)c1ccc(F)c(F)c1Nc1ccc(I)cc1F,0,20.4,20.3,0.5,21.3,0
O=C(/C=C\n1cnc(-c2cc(C(F)(F)F)cc(C(F)(F)F)c2)n1)NNc1cnccn1 [Selinexor],31.3,18.9,18.9,29,19.1,32.5
CC(C)[C@H]1C(=O)N[C@@H](CCCNC(=N)N)C(=O)NCC(=O)N[C@@H](CC(=O)O)C(=O)N[C@H](Cc2ccccc2)C(=O)N1C [Cilengitide],0,0,0,0,0.7,0
Cn1nnc2c(C(N)=O)ncn2c1=O [Temozolomide],0,0,0,0.3,0,0.9
CC#CC(=O)N1CC[C@@H](n2c(=O)n(-c3ccc(Oc4ccccc4)cc3)c3c(N)ncnc32)C1 [Tirabrutinib],0,0,0,0,0,0
Oc1ncnc2[nH]ncc12 [Allopurinol],3.2,0,0,0,0,0
Nc1nc(F)nc2c1ncn2[C@@H]1O[C@H](CO)[C@@H](O)[C@@H]1O [Fludarabine],6.5,0.1,0,4.6,0,5.6
CCC1=C[C@@H]2CN(C1)Cc1c([nH]c3ccccc13)[C@@](C(=O)OC)(c1cc3c(cc1OC)N(C)[C@H]1[C@@](O)(C(=O)OC)[C@H](OC(C)=O)[C@]4(CC)C=CCN5CC[C@]31[C@@H]54)C2 [Vinorelbine],46.3,34,33.8,44.8,34.4,46.2
Cc1cccc(-c2[nH]c(CNc3ccccc3F)nc2-c2ccc3ncnn3c2)n1,0,0,0,0,0,0
COC[C@H](NC(=O)c1cnc(C)s1)C(=O)N[C@@H](COC)C(=O)N[C@@H](Cc1ccccc1)C(=O)[C@@]1(C)CO1 [Oprozomib],22,20.5,23.7,21.4,22,19.1
C[C@H]1O[C@@H](O[C@H]2[C@@H](O)C[C@H](O[C@H]3[C@@H](O)C[C@H](O[C@H]4CC[C@@]5(C)[C@H](CC[C@@H]6[C@@H]5C[C@@H](O)[C@]5(C)[C@@H](C7=CC(=O)OC7)CC[C@]65O)C4)O[C@@H]3C)O[C@@H]2C)C[C@H](O)[C@@H]1O [Digoxin],15.9,15.1,14.3,13.1,17.5,16.9
COc1cc2nccc(Oc3ccc(NC(=O)C4(C(=O)Nc5ccc(F)cc5)CC4)cc3)c2cc1OC [Cabozantinib],0,0,0,0.2,0,0
Cn1c(Nc2ccc(C(F)(F)F)cc2)nc2cc(Oc3ccnc(-c4ncc(C(F)(F)F)[nH]4)c3)ccc21,2,3.6,5.4,7.2,4.1,5.2
CC[C@@]1(O)C(=O)OCc2c1cc1n(c2=O)Cc2cc3c(CN(C)C)c(O)ccc3nc2-1 [Topotecan],32.2,10.7,11.1,34.2,13.6,37.9

SMILES,drug sensitivity score (IMR-32 [1]),drug sensitivity score (SK-N-AS [2]),drug sensitivity score (SK-N-AS [3]),drug sensitivity score (IMR-32 [4]),drug sensitivity score (SK-N-AS [5]),drug sensitivity score (IMR-32 [6])
CC(C)C[C@H](NC(=O)[C@@H](COC(C)(C)C)NC(=O)[C@H](Cc1ccc(O)cc1)NC(=O)[C@H](CO)NC(=O)[C@H](Cc1c[nH]c2ccccc12)NC(=O)[C@H](Cc1cnc[nH]1)NC(=O)[C@@H]1CCC(=O)N1)C(=O)N[C@@H](CCCNC(=N)N)C(=O)N1CCC[C@H]1C(=O)NNC(N)=O [Goserelin],0,0,0,0.5,0,0
CS(=O)(=O)N1CCN(Cc2cc3nc(-c4cccc5[nH]ncc45)nc(N4CCOCC4)c3s2)CC1 [Pictilisib],6.9,9.5,8.4,7,9.8,8.8
C[C@H]1CNCCCN1S(=O)(=O)c1cccc2cncc(F)c12 [Ripasudil],0,0,0,1.3,0,0
Nc1cccc2c1CN(C1CCC(=O)NC1=O)C2=O (stereo not given) [Lenalidomide],9.8,0,0,6.6,0,8.1
COc1cccc2c1C(=O)c1c(O)c3c(c(O)c1C2=O)C[C@@](O)(/C(CO)=N/NC(=O)CCCCCN1C(=O)C=CC1=O)C[C@@H]3O[C@H]1C[C@H](N)[C@H](O)[C@H](C)O1 [Aldoxorubicin],22.1,8.1,7,22.6,8.5,22.5
C=CC[C@@H]1/C=C(\C)C[C@H](C)C[C@H](OC)[C@H]2O[C@@](O)(C(=O)C(=O)N3CCCC[C@H]3C(=O)O[C@H](/C(C)=C/[C@@H]3CC[C@@H](O)[C@H](OC)C3)[C@H](C)[C@@H](O)CC1=O)[C@H](C)C[C@@H]2OC [Tacrolimus],0,2.1,4,4.3,1.6,0
CN[C@@H](C)C(=O)N[C@H](C(=O)N1CCC[C@H]1c1nc(C(=O)c2ccc(F)cc2)cs1)C1CCCCC1,0,4.4,3.2,0,3,0
CCOc1ccn(-c2ccc(F)cc2)c(=O)c1C(=O)Nc1ccc(Oc2ccnc(N)c2Cl)c(F)c1,0,0,0,0,0,0.5
O=C(CCNC(=O)c1ccc(OC(F)(F)F)cc1)N[C@@H]1CCCc2ccccc21,21.1,0.4,0.1,19.1,0,21.3
Nc1ncn([C@H]2C[C@H](O)[C@@H](CO)O2)c(=O)n1 [Decitabine],14.2,0,0.1,19.9,0,17.4
COc1cc2ncnc(Nc3ccc(F)c(Cl)c3)c2cc1OCCCN1CCOCC1 [Gefitinib],5.1,1.9,2,4.4,2.7,6
C[C@]12CC[C@H](O)CC1=CC[C@@H]1[C@@H]2CC[C@]2(C)C(c3cccnc3)=CC[C@@H]12 [Abiraterone],0,1.2,0.7,0,0,1
Nc1nc(Nc2ccc3c(c2)CC[C@@H](N2CCCC2)CC3)nn1-c1cc2c(nn1)-c1ccccc1CCC2,5.1,5.6,5.4,5.6,5.5,4.4
CCOC(=O)CCNc1cc(N2CCc3ccccc3CC2)nc(-c2ccccn2)n1,7.2,3.4,9.1,26.1,3.4,9.5
CC1(C)CC[C@]2(NC(=O)C(C)(F)F)CC[C@]3(C)[C@H](C(=O)C=C4[C@@]5(C)C=C(C#N)C(=O)C(C)(C)[C@@H]5CC[C@]43C)[C@@H]2C1 [Omaveloxolone],20.2,17.5,19.3,20.4,18.3,18.5
Cn1cc(C[C@@H](N)C(=O)O)c2ccccc21 [1-methyl-D-tryptophan],0,0,0,0,0,0
O=C(NCc1ccncc1)C12CC3CC(C1)CC(c1ccc(Cl)cc1)(C3)C2,9.2,4.4,6,9.4,5.5,9.8
Cn1cncc1[C@@](N)(c1ccc(Cl)cc1)c1ccc2c(c1)c(-c1cccc(Cl)c1)cc(=O)n2C [Tipifarnib],10.9,7.9,7.2,14.9,7.7,15.6
COc1cccc2c1c(O)c(C(=O)N(C)c1ccc(C(F)(F)F)cc1)c(=O)n2C [Tasquinimod],0,0,0,0,0,0
Cn1ncc(Cl)c1-c1cc(C(=O)N[C@H](CN)Cc2cccc(F)c2)sc1Cl [Afuresertib],0,0.6,0.4,0,0.3,0
